Data taken from PubChem BioAssay AID488969 (Vanderbilt High Throughput Screening Facility, 2010).
Over roughly 110,000 compounds, “z-score” has its median near -0.1; the highest 2% begin near 2. Some of the results follow. Activity calls are given as the source filed them.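 How the source made its calls: active means z-score in the third read window above 3 or below -3; inactive means the rest.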

These compounds were tested against Metabotropic glutamate receptor 8 (Rattus norvegicus) (UniProt P70579) (assay: mGluR8 Gi/Go-coupled signaling modulation – cell-based, rat, thallium flux, HTS, primary screen (AID 488969)). Conditions: HEK293 rat mGluR8, GIRK (G protein-gated inwardly rectifying potassium channel) thallium flux, FluoZin2; at 10 µM; stronger effect = higher value; submaximal glutamate (EC20) added with thallium.
Chain of UniProt P70579 (P70579 whole entry, looked up): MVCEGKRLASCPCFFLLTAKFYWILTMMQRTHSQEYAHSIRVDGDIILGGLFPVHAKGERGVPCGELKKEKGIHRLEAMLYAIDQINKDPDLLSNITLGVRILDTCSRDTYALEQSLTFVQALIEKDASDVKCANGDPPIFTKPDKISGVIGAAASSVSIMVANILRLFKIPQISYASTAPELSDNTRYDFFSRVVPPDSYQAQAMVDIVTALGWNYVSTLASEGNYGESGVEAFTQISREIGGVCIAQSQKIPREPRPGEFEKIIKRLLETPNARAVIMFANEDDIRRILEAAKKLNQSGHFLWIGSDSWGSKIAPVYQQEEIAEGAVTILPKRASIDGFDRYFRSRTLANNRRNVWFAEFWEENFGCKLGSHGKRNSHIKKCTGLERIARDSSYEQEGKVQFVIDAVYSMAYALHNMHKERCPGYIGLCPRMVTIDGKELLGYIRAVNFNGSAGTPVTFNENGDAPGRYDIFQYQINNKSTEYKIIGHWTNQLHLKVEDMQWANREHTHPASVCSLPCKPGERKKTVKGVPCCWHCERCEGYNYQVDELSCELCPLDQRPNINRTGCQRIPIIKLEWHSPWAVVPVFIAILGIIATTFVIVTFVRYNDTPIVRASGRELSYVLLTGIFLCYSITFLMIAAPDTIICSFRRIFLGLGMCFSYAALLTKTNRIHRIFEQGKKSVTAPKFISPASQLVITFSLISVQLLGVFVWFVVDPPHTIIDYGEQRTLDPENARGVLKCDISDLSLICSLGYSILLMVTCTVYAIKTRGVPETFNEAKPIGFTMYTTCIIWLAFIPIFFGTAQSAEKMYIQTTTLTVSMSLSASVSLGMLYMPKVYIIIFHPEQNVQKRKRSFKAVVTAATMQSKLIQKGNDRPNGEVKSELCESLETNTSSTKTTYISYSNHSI

| SMILES | z-score |
| --- | --- |
| CCOC(=O)C1=C(O)CSC1=Nc1ccccc1 | 0.509 |
| Cc1c(O)c(CN2CCCCC2)cc2c1oc(=O)c1ccccc12 | -0.0565 |
| COc1cccc(/C(O)=C2/C(=O)C(=O)N(CCN3CCOCC3)C2c2cccs2)c1 (configuration not stated) | -0.0126 |
| COc1ccc(-c2nc3ccccc3c(=O)n2NC(=O)c2cccnc2Cl)cc1OC | 0.164 |
| CC(C)(C)N(NC(=O)Nc1ccc(Cl)cc1)C(=O)c1ccccc1 | 1.25 |
| Cc1cc(N2CCCCC2)nc(NCc2ccccc2)n1 | 0.794 |
| N/C(=C/C(=O)c1ccccc1O)C(F)(F)F | -0.604 |
| O=C(O)CC(NC(=O)COc1ccc(Cl)cc1Cl)C(=O)O (configuration not stated) | 0.351 |
| CC(=O)N1CCCc2cc(S(=O)(=O)NC(C(=O)NC(C)c3ccccc3)C(C)C)ccc21 (configuration not stated) | -1.09 |
| C[n+]1ccc(C(=O)N/N=C/c2ccco2)cc1 | -0.101 |
| COc1ccc(CC(=O)Nn2c(-c3ccccc3)nc3ccccc3c2=O)cc1 | 0.469 |
| N#CC1=C(N)Oc2n[nH]c(-c3ccccc3)c2C1c1cccc(OC(=O)N2CCOCC2)c1 (configuration not stated) | 0.0175 |
| Clc1ccc(-n2nnnc2SCc2cn3ccccc3n2)cc1 | -0.137 |
| CC(C)NS(=O)(=O)c1ccc(OCC(=O)Nc2ccccc2F)cc1 | 0.0524 |
| O=C(CSc1ccc(-c2ccco2)nn1)NCc1ccc(F)cc1 | 0.0645 |
| CCN(CC)C(=O)C1CCN(c2ncnc3c2cnn3-c2ccc(C)cc2C)CC1 | -0.439 |
| Fc1ccc(CNC(=S)Nc2ccc(Cl)cc2)cc1 | 0.385 |
| Cc1cc2c(C)nc3ccccc3c2o1 | -0.371 |
| Cc1ccc(S(=O)(=O)N(CC(=O)NCCSCc2ccco2)c2cc(C)ccc2C)cc1 | -0.0745 |
| Cn1c(OCc2cccnc2)nc2c1c(=O)n(Cc1ccc(Cl)cc1)c(=O)n2C | -0.506 |
| COc1ccc(-c2cc(N3C(=O)Nc4ccccc4N3O)n[nH]2)cc1OC | -0.444 |
| CCOC(=O)c1sc(NN=C(C(=O)OC)C(=O)OC)c(C(=O)OCC)c1C | 2.57 |
| CC(O)CN(C)CC/C=C1/c2ccccc2CSc2ccccc21 (configuration not stated) | 0.694 |

| SMILES | z-score |
| --- | --- |
| CCOC1(NC(=O)c2ccccc2)C(C)=CC(=O)C=C1C | 0.317 |
| O=C1c2ccncc2C(=O)N1CO | 1.16 |
| COc1cccc(C(=O)N2CCN(Cc3cccc(F)c3)CC2)c1 | -0.151 |
| NC(=O)Cc1ccc(Nc2nnc(-c3ccccc3)c3ccccc23)cc1 | 0.281 |
| Cc1cc(/C=N/n2c(COc3ccccc3)nc3ccccc3c2=O)c(O)c([N+](=O)[O-])c1 | -0.382 |
| Cc1noc(C)c1COC(=O)CCC(=O)c1ccc(F)cc1 | 0.35 |
| COc1ccccc1NC(=O)CSc1nnc(Cn2cnc3ccccc32)n1C | 0.264 |
| CN1CCN(CCCNC(=O)c2nnc(Cc3c(F)cccc3Cl)o2)CC1 | 0.0779 |
| CC(=O)c1ccccc1C(=O)NCc1cccnc1 | -0.207 |
| COc1cc(N(C)C)c([N+](=O)[O-])cc1C(=O)NC(C)CNc1ccc([N+](=O)[O-])cc1Cl (configuration not stated) | 0.259 |
| COCCOC(=O)C1=C(C)NC2=C(C(=O)CCC2)C1c1ccc2c(c1)OCO2 (configuration not stated) | -0.0243 |
| O=C(O)CCc1ccc(-c2ccccc2)n1CC1CCCO1 (configuration not stated) | -0.0265 |
| COc1cc(NC(=S)NCc2ccco2)cc(OC)c1 | -0.0613 |
| S=c1[nH]nc(C2CCCCC2)n1/N=C/c1cccs1 | 2.48 |
| Cn1cnnc1SCCNS(=O)(=O)c1ccccc1 | -0.049 |
| Cc1oc2c(c1C(=O)Nc1cccc3ccccc13)CCCC2 | -0.578 |
| O=C(NCCc1ccccn1)C1CC(=O)N(Cc2ccccc2Cl)C1 (configuration not stated) | -0.211 |
| O=C(CSC1=NCCS1)Nc1cccc2ccccc12 | -0.117 |
| CCOC(=O)C1=C(CSc2nc(-c3ccccc3)ccc2C#N)OC(N)=C(C#N)C1c1cccnc1 (configuration not stated) | -0.107 |
| CCCOP(=O)(c1ccc(N(C)C)cc1)C(O)c1cccnc1 (configuration not stated) | 0.234 |
| CN1C(=O)CC(N2CCN(CC(=O)N3CCCC3)CC2)C1=O (configuration not stated) | 1.05 |
| Cc1cc(OCCn2cc(/C(N)=N/O)c3ccccc32)ccc1Cl | -0.246 |
| CCN(CC(=O)Nc1ccc2c(c1)OCCO2)C(=O)CC1CCCC1 | -0.356 |

| SMILES | z-score |
| --- | --- |
| COc1ccc(/C=C/C(=O)OCc2cc(=O)n3c(n2)sc2ccccc23)cc1 | -0.421 |
| Cc1ccc2ccc(C3C(=O)c4ccccc4C3=O)nc2c1 | -0.226 |
| Cc1ccc(SC(C)C(=O)Nc2c(C)n(C)n(-c3ccccc3)c2=O)cc1 (configuration not stated) | 0.00102 |
| CC1CCC(NC(=O)CC(C)(C)Cc2nc3ccccc3c(=O)[nH]2)CC1 (configuration not stated) | -0.289 |
| Cc1cccc(C)c1Oc1nc(-c2ccccc2)ncc1S(=O)(=O)c1ccccc1 | -0.0101 |
| O=C(COc1ccc(Br)cc1)Nc1ccc([N+](=O)[O-])cn1 | -0.114 |
| O=C(O)CNC(=O)C1COc2ccccc2O1 (configuration not stated) | -0.585 |
| CC(=O)Nc1ccc(-c2csc(NC(=O)C3CCN(S(=O)(=O)c4cccs4)CC3)n2)cc1 | -0.103 |
| Nc1ccc2nc(-c3ccccc3)[nH]c2c1 | 1.19 |
| Cc1cccc(C)c1NC(=O)CN(C)CC(=O)Nc1cc(Cl)ccc1C#N | -0.401 |
| CCOC(=O)c1c(C)[nH]c(C(=O)OCC(=O)N2CCN(S(=O)(=O)c3ccccc3)CC2)c1C | -0.532 |
| CC(=O)Nc1ccc(S(=O)(=O)NC(C(=O)O)C2=CCC=CC2)cc1 (configuration not stated) | 1.91 |
| Cc1ccc(C(=O)CC(c2cccs2)S(=O)(=O)c2ccc(C)cc2)cc1 (configuration not stated) | -0.0995 |
| O=C(/C=C/Nc1cccc([N+](=O)[O-])c1)c1cccs1 | -0.294 |
| Cc1ccccc1Cn1cc(/C=N/n2cnnc2)c2ccccc21 | 0.0847 |
| COc1ccc(Cl)cc1NC(=O)CCN1CCN(c2ccccc2C)CC1 | 0.282 |
| CCOC(=O)c1ccc(NC(=O)CSc2nnc(-c3ccncc3)n2C)cc1 | 0.118 |
| O=C(COC(=O)c1ccco1)NC1CCCCC1 | 0.913 |
| CCOc1ccccc1C(=O)OCC(=O)Nc1ccc(N2CCCCC2)cc1 | 0.0751 |
| CCOc1ccc(S(=O)(=O)c2c(C(=O)c3ccc(C)cc3)cnc3cc4c(cc23)OCCO4)cc1 | -0.72 |
| COc1ccc(C2=Nn3c(nnc3C3CCCCC3)SC2)cc1OC | active: -3.1 |
| CCOc1ccc(OCCOCCOc2c(Cl)cccc2Cl)cc1 | -0.119 |
| c1cnc(-c2nnc3n2CCCCC3)cn1 | -0.278 |

| SMILES | z-score |
| --- | --- |
| COC(=O)c1cc(NCc2ccc3c(c2)OCO3)ccc1N1CCOCC1 | -0.537 |
| Cc1cc(/C=N/n2c(COc3ccccc3C)nc3ccccc3c2=O)c(O)c([N+](=O)[O-])c1 | -0.502 |
| COc1ccc(C2N=C(c3ccccc3)NC(c3ccccc3)=N2)cc1 | -0.384 |
| NNC(=O)C1=NOC(CNc2ncc(C(F)(F)F)cc2Cl)C1 (configuration not stated) | 0.279 |
| CC(C)CCNC(=O)C(c1ccc(O)cc1)N(Cc1cccs1)C(=O)C1COc2ccccc2O1 (configuration not stated) | -0.136 |
| CCC1=NN(C(=O)Cc2ccc(OC)cc2)C(O)(C(F)(F)F)C1 (configuration not stated) | -0.157 |
| Cc1nc(NC(N)=S)sc1C(=O)Nc1ccccc1 | 0.266 |
| O=C(c1ccccc1)N1CCCc2ccccc21 | active: 3.33 |
| CCOC(=O)c1c(C)[nH]c(C(=O)OCC(=O)Nc2cc(C)ccc2OC)c1C | 0.0146 |
| CCOc1ccc(CCNS(=O)(=O)c2c(C)n[nH]c2C)cc1OCC | -0.0316 |
| O=C(OCc1ccccc1)c1cccc(-c2nnc(-c3ccccc3)o2)c1 | -0.151 |
| CC(=O)Nc1ccc(S(=O)(=O)Oc2ccc3c(c2)C(C)=CC(C)(C)N3)cc1 | -0.232 |
| NS(=O)(=O)c1ccc(CCNC(=O)c2ccccc2[N+](=O)[O-])cc1 | -0.167 |
| CCN1/C(=C/c2ccc3cc(C)ccc3[n+]2CC)Sc2ccccc21 | 0.652 |
| COCC(=O)OCC(=O)Nc1cc(C)c(C)cc1[N+](=O)[O-] | -0.0881 |
| Cc1ccc(CNC(=O)c2ccc(NS(=O)(=O)c3c(C)noc3C)cc2)cc1 | -0.649 |
| Cc1ccc(Cl)cc1NC(=O)Cn1cc2c(n1)CCCC2 | -0.558 |
| CC(=O)c1cc(NC(=O)c2ccc(C)cc2)c(=O)oc1/C=C/N(C)C | -0.203 |
| CC(NC(=O)CC12CC3CC(CC(C3)C1)C2)C(=O)O (configuration not stated) | -0.136 |
| c1ccc2c(c1)[nH]c1c(NCC3CCCO3)ncnc12 (configuration not stated) | -0.111 |
| COc1cnn(C(C)(C)C)c(=O)c1Cl | -0.0663 |
| O=C(CN(c1ccc2c(c1)OCCO2)S(=O)(=O)c1ccccc1)NCC1CCCO1 (configuration not stated) | 0.697 |
| Cc1ccc(Cl)cc1NC(=O)c1ccc(NC(=O)CCC(=O)O)cc1 | -0.169 |

| SMILES | z-score |
| --- | --- |
| Cc1ccc(N2CCN(C(=O)CNS(=O)(=O)c3ccc(Br)s3)CC2C)cc1 (configuration not stated) | 0.106 |
| c1ccc(Cn2c(CNc3nc4ccccc4n3CCN3CCOCC3)nc3ccccc32)cc1 | -0.591 |
| O=C(Nc1ccc2oc(-c3ccccc3)nc2c1)c1ccco1 | -0.345 |
| O=C1CC(c2ccc(S(=O)(=O)N3CCN(c4ccccc4)CC3)cc2)CN1 (configuration not stated) | -0.712 |
| Cc1c(Cl)cccc1NC(=O)CCC(=O)NNC(=O)c1ccccc1Cl | -0.315 |
| O=C(COc1ccccc1)Nc1nccs1 | 1.35 |
| O=C1C2C3C=CC(CC3)C2C(=O)N1/N=C/c1ccccc1O (configuration not stated) | -0.187 |
| CCCCOc1ccc(S(=O)(=O)NC(=O)NCc2ccc(OCCC)cc2)cc1 | -0.658 |
| Nc1nc(-c2ccccc2)c(-c2ccccc2)s1 | 0.478 |
| COC(=O)c1c(NC(=O)C2CC2)sc2c1CCCC2 | -0.0615 |
| COc1ccc(N2CCN(CCCNC(=O)c3cc4sccc4n3C)CC2)cc1 | -0.577 |
| Cc1ccn2cc(CCNC(=O)c3ccc(Br)o3)nc2c1 | -0.332 |
| COc1ccc(CN=C2NC(=O)CC(C(=O)Nc3cc(C)cc(C)c3)S2)cc1 (configuration not stated) | -0.0924 |
| O=c1c2ccccc2nc(-c2ccc(Cl)cc2)n1C1CCS(=O)(=O)C1 (configuration not stated) | -0.341 |
| Cn1cc(CC(=O)NCCCN2CCCC2=O)c2ccccc21 | 0.417 |
| CC(NO)/C(=N\O)c1cccs1 (configuration not stated) | -0.105 |
| Cc1oc(C(=O)O)cc1CSCc1cc(C(=O)O)c(C)o1 | 0.424 |
| COc1ccc(CNC(=O)Cn2cc(C(F)(F)F)ccc2=O)cc1 | -0.2 |
| C/C(=N\NC(=O)CNC(=O)c1ccc2c(c1)OCO2)c1ccco1 | 0.00413 |
| Cc1ccc(C2CC(c3cccs3)=NN2C(=O)CSc2nc3ccccc3o2)cc1 (configuration not stated) | -0.0746 |
